# Reference: patent US20250177546A1, “ROR1-TARGETED BINDING MOLECULE AND USE THEREOF” (SANYOU BIOPHARMACEUTICALS CO., LTD., priority 2022, published 2025)
# “Also recorded” adds a separate entry of the source.
# B1: B32: chimeric anti-ROR1 antibody, murine clone B32; CDRs SEQ ID NO 7-9, 34, 32, 33 (antibody)
# heavy: EVKLMESGGGLVKPGGSLKLSCAASGFAFSSYAMSWVRQTPDKRLEWVASINRDVTTYYPDSMKGRFTISRDNARNILYLQMSSLRSEDTAMYYCARGYYYGGGPYWHFDVWGAGTTVTVSS[human IgG1 constant region not listed]
# light: DIQITQSPSSMYASLGERVTITCKASQDINSYLTWFQQKPGKSPKTLIYRANRLVDGVPSRFSGSGSGQDYSLTISSLEYEDMGIYYCLQFDEFPYTFGGGTKLEIKRTVAAPSVFIFPPSDEQLKSGTASVVCLLNNFYPREAKVQWKVDNALQSGNSQESVTEQDSKDSTYSLSSTLTLSKADYEKHKVYACEVTHQGLSSPVTKSFNRGEC
# B2: C38: chimeric anti-ROR1 antibody, murine clone C38; CDRs SEQ ID NO 18, 8, 19, 31-33 (antibody)
# heavy: EVMLVESGGGLVRPGGSLKLSCAASGFTFSSYAMSWVRQTPDKRLEWVASINRDVTTYYPDSVKGRFTISRDNARNILYLQMSSLRSEDTAMYYCARDYYYGSSLYYGMDYWGQGTSVTVSS[human IgG1 constant region not listed]
# light: DIQMTQSPSSMHASLGERVTITCKASQDINNYVSWFQQKPGKSPKTLIYRANRLVDGVPSRFSGSGSGQDYSFTISSLEYEDMGIYYCLQFDEFPYTFGGGTKLEIKRTVAAPSVFIFPPSDEQLKSGTASVVCLLNNFYPREAKVQWKVDNALQSGNSQESVTEQDSKDSTYSLSSTLTLSKADYEKHKVYACEVTHQGLSSPVTKSFNRGEC
# B3: C42: chimeric anti-ROR1 antibody, murine clone C42; CDRs SEQ ID NO 22-24, 39-41 (antibody)
# heavy: EVMLVESGGGLVKPGGSLKLSCAASGFTFSNYIMSWVRQTPEKRLEWVATINSGGTNTYYPDSVKGRFTISRDNAKNSLYLQMNSLRSEDTALYYCTRYNGNYVWFAYWGQGTLVTVSA[human IgG1 constant region not listed]
# light: DIVLTQSPAIMSASPGEKVTMTCSASSSVSFIYWYQQKPGSSPRLLIYDTSNLASGVPVRFSGSGSGTSYSLTISRMEAEDAATYYCQQWSNYHFTFGSGTKLEIKRTVAAPSVFIFPPSDEQLKSGTASVVCLLNNFYPREAKVQWKVDNALQSGNSQESVTEQDSKDSTYSLSSTLTLSKADYEKHKVYACEVTHQGLSSPVTKSFNRGEC
# B4: B39: chimeric anti-ROR1 antibody, murine clone B39; CDRs SEQ ID NO 15-17, 38, 32, 33 (antibody)
# heavy: EVKLVESGGGLVKPGGSLKLSCAASGFTFSTYAMSWVRQTPEKRLEWVASISTGASTYYPDSVKGRFTISRDNARNILYLQMSSLRSEDTAMYYCAREETTTAALYYAMDYWGQGTSVTVSS[human IgG1 constant region not listed]
# light: DIKITQSPSSMYASLGERVTITCKASQDINNYLSWFQQKPGKSPKTLIYRANRLVDGVPSRFSGSGSGQDYSLTISSLEYEDMGIYYCLQFDEFPYTFGGGTKLEIKRTVAAPSVFIFPPSDEQLKSGTASVVCLLNNFYPREAKVQWKVDNALQSGNSQESVTEQDSKDSTYSLSSTLTLSKADYEKHKVYACEVTHQGLSSPVTKSFNRGEC
# B5: B74: chimeric anti-ROR1 antibody, murine clone B74; CDRs SEQ ID NO 10-12, 35, 32, 36 (antibody)
# heavy: EVMLVESGGNLVKPGGSLKLSCAASGFTFSIYAMSWVRQTPEKRLEWVASISGGGTAYYPDSVKGRFTISRDNARNILYLQMSSLRSEDTAIYYCARGYYYGGSPYWHFDVWGAGTTVTVSS[human IgG1 constant region not listed]
# light: DIKMTQSPSSMYASLGERVTITCKASQDINSYLSWFQQKPGKSPKTLIYRANRLVDGVPSRFSGSGSGQDYSLTISSLEYEDIGIYYCLQIDEFPYTFGGGTKLEIKRTVAAPSVFIFPPSDEQLKSGTASVVCLLNNFYPREAKVQWKVDNALQSGNSQESVTEQDSKDSTYSLSSTLTLSKADYEKHKVYACEVTHQGLSSPVTKSFNRGEC
# B6: C77: chimeric anti-ROR1 antibody, murine clone C77; CDRs SEQ ID NO 20, 21, 12, 31-33 (antibody)
# heavy: EVKLVESGGGLVKPGGSLKLSCAASGFSFSNYAMSWVRQTPEKRLEWVASINSGVTTYYPDSVKGRFTVSRDNARNILYLHMTGLRSEDTAIYYCSRGYYYGGSPYWHFDVWGAGTTVTVSS[human IgG1 constant region not listed]
# light: DIQMTQSPSSMHASLGERVTITCKASQDINNYVSWFQQKPGKSPKTLIYRANRLVDGVPSRFSGSGSGQDYSFTISSLEYEDMGIYYCLQFDEFPYTFGGGTKLEIKRTVAAPSVFIFPPSDEQLKSGTASVVCLLNNFYPREAKVQWKVDNALQSGNSQESVTEQDSKDSTYSLSSTLTLSKADYEKHKVYACEVTHQGLSSPVTKSFNRGEC
# B7: M71: chimeric anti-ROR1 antibody, murine clone M71; CDRs SEQ ID NO 4, 25, 26, 35, 32, 33 (antibody)
# heavy: EVMLVESGGGLVKPGGSLKLSCAASGFTFSRYAMSWVRQTPEKRLEWVASINRGGTTYYPDSVKGRFTISRDNARDILYLQMSSLRSEDTAIYYCARDYYYGSSLYNGMDFWGQGTSVIVSS[human IgG1 constant region not listed]
# light: DIQMTQSPSSMYASLGERVTITCKASQDINSYLSWFQQKPGKSPKTLIYRANRLVDGVPSRFSGSGSGQDYSLTISSLESEDMGIYYCLQFDEFPYTFGGGTKLEIKRTVAAPSVFIFPPSDEQLKSGTASVVCLLNNFYPREAKVQWKVDNALQSGNSQESVTEQDSKDSTYSLSSTLTLSKADYEKHKVYACEVTHQGLSSPVTKSFNRGEC
# B8: M78: chimeric anti-ROR1 antibody, murine clone M78; CDRs SEQ ID NO 18, 25, 27, 35, 32, 33 (antibody)
# heavy: EVMLVESGGGLVRPGGSLKLSCAASGFTFSSYAMSWVRQSPEKRLEWVASINRGGTTYYPDSVKGRFTISRDNARDILYLQMSSLRSEDTAIYYCARDYYYGSNLYNGMDYWGQGTSVIVSS[human IgG1 constant region not listed]
# light: DIKITQSPSSMYASLGERVTITCKASQDINSYLSWFQQKPGKSPKTLIYRANRLVDGVPSRFSGSGSGQDYSLTISSLEYEDMGIYYCLQFDEFPYTFGGGTKLEIKRTVAAPSVFIFPPSDEQLKSGTASVVCLLNNFYPREAKVQWKVDNALQSGNSQESVTEQDSKDSTYSLSSTLTLSKADYEKHKVYACEVTHQGLSSPVTKSFNRGEC
# B9: B34: chimeric anti-ROR1 antibody, murine clone B34; CDRs SEQ ID NO 4, 13, 14, 35, 32, 37 (antibody)
# heavy: EVQLVESGGGLVQPKGSLKLSCAASGFTFSRYAMSWVRQTPEKRLEWVASISTGGSPYYPDSVKGRFTISRDNARNILYLQMSSLKSEDTAMYYCARGYYYNSSPHWYFAVWGAGTSVTVSS[human IgG1 constant region not listed]
# light: DIQMTQSPSSLSASLGERVTITCKASQDINSYLSWFQQKPGKSPKTLIYRANRLVDGVPSRFSGSGSGQDYSLTISSLEYEDMGIYYCLQYDEFPYTFGGGTKLEIKRTVAAPSVFIFPPSDEQLKSGTASVVCLLNNFYPREAKVQWKVDNALQSGNSQESVTEQDSKDSTYSLSSTLTLSKADYEKHKVYACEVTHQGLSSPVTKSFNRGEC
# How the values were obtained:
# Assay type in all cases: binding
# [1] = biological target: T1, mouse ROR1 antigen protein MusROR1-His (Mus musculus, UniProt Q9Z139); assay: ELISA cross-reactivity between species (MusROR1-His)
# T1 construct: MusROR1 ECD AA30-406 (Uniprot ID: Q9Z139); made in house; host or cells: HEK293 (transient transfection, pcDNA3.4)
# [2] = biological target: T2, human ROR2 antigen protein huROR2-His (Homo sapiens, UniProt Q01974); assay: ELISA cross-reactivity between homologous groups (huROR2-His)
# T2 construct: huROR2 ECD AA34-403 (Uniprot ID: Q01974); made in house; host or cells: HEK293 (transient transfection, pcDNA3.4)
# [3] = biological target: T3, antigen protein huROR1-His (Homo sapiens, UniProt Q01973); assay: Affinity kinetics (Gator)
# T3 construct: huROR1 ECD AA30-406 (Uniprot ID: Q01973); made in house; host or cells: HEK293 (transient transfection, pcDNA3.4)
# T3 sequence (Q01973 30-406): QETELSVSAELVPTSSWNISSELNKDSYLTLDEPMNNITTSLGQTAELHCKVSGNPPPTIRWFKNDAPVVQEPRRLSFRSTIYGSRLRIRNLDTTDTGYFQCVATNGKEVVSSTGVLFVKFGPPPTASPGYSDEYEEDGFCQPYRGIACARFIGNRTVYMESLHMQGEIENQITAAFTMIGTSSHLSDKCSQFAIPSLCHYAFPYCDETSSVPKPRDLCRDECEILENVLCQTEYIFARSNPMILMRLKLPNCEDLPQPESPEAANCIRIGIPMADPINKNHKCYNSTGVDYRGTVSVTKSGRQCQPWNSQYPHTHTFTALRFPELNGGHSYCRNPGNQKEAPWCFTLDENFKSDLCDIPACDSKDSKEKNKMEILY
# T1 sequence (Q9Z139 30-406): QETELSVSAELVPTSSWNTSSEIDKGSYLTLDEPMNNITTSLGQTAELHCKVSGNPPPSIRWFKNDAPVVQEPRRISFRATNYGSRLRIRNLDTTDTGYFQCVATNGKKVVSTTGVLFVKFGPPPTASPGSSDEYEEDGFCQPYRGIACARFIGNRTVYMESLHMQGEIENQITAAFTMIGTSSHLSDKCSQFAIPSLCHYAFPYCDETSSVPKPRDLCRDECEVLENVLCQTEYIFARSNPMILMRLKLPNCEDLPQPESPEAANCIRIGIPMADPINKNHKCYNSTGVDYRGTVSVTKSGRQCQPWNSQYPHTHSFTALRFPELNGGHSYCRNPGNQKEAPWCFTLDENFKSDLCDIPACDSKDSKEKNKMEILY
# T2 sequence (Q01974 34-403): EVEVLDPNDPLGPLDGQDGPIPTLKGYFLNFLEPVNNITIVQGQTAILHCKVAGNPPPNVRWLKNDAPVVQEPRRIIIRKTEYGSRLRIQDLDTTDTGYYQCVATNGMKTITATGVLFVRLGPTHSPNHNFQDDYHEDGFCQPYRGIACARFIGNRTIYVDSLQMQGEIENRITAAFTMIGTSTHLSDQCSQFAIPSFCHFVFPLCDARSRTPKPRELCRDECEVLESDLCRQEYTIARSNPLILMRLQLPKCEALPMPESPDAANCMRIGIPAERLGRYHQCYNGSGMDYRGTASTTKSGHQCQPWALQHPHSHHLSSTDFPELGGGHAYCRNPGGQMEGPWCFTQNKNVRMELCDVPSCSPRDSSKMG
Molecule,MusROR1-His [1],huROR2-His [2],Ka [3],Kd [3],Rmax (nm) [3],affinity relative to control antibody 99961.1 [3]
B1,bind to the antigen protein MusROR1-His; also recorded: binding,no binding,301000 M⁻¹ s⁻¹,0.000377 s⁻¹,0.874 nm,–
B2,bind to the antigen protein MusROR1-His; also recorded: binding,no binding,314000 M⁻¹ s⁻¹,0.000422 s⁻¹,0.935 nm,–
B3,bind to the antigen protein MusROR1-His; also recorded: binding,no binding,110000 M⁻¹ s⁻¹,0.00325 s⁻¹,0.652 nm,comparable affinity to the control antibody 99961.1
B4,no binding,no binding,304000 M⁻¹ s⁻¹,0.00135 s⁻¹,1.060 nm,–
B5,no binding,no binding,323000 M⁻¹ s⁻¹,0.000464 s⁻¹,1.080 nm,–
B6,no binding,no binding,314000 M⁻¹ s⁻¹,0.000774 s⁻¹,0.959 nm,–
B7,no binding,no binding,351000 M⁻¹ s⁻¹,0.00054 s⁻¹,0.916 nm,–
B8,no binding,no binding,330000 M⁻¹ s⁻¹,0.000614 s⁻¹,0.920 nm,–
B9,no binding,no binding,241000 M⁻¹ s⁻¹,0.000609 s⁻¹,0.782 nm,–
